# Test results reported in the supplement of paper PMC9135407.
# Where “and” joins values, the source holds several entries; their conditions need not be identical. Equal values may be shown once. Where a name gives a salt, the structure may show the parent alone. Out of some 5,800 compounds screened, about 620 (11%) showed activity.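 The calls were made as follows: active = score above a cut-off or among the top three wells of a plate; in these data no inactive exceeds 0.85.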 This is a selection; strong and weak results do not stand in their true shares.
# Test system: primary human hepatic stellate cells (donor 1)
# Test: scaled lipid accumulation score (0 = DMSO-like, 1 = nortriptyline-like); higher = stronger HSC inactivation (lipid re-accumulation), active = hit call of the paper
# Details: 48 h
# Description: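 Primary lipid accumulation screen in primary human hepatic stellate cell myofibroblasts (donor 1, passage 8) in 384-well plates. 100 nL of library compound was pin-transferred into 30 µL medium in duplicate, and cells were treated for 48 h. The 'Scaled' score combines distance from plate baseline, toxicity and reproducibility penalties, and is normalised to nortriptyline (positive) and DMSO (negative) controls on each plate. A hit is defined as scaled >0.85 or among the top 3 wells per plate.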
# [1] = library stock concentration: 10 mM
# [2] = library stock concentration: 3.33 mM
# [3] = library stock concentration: 1 mM
# [4] = library stock concentration: 4.9 mM
smiles,measurement,setting,value
CCCCCCc1ccc(O)cc1O [Hexylresorcinol],scaled lipid accumulation score,[1],inactive: 0.055
N[C@@H](CC(=O)Nc1ccc(Oc2cc(F)c(F)cc2Br)cc1)C(=O)O,scaled lipid accumulation score,[1],inactive: ≤ -0.001
CC1(C)NC(=O)N(c2ccc([N+](=O)[O-])c(C(F)(F)F)c2)C1=O [Nilutamide],scaled lipid accumulation score,,inactive: ≤ 0
same,scaled lipid accumulation score,library stock concentration: 6.3 mM,inactive: ≤ 0
same,scaled lipid accumulation score,[1],inactive: ≤ -0.055 and inactive: ≤ -0.027 and inactive: ≤ 0
Oc1c2ccccc2c2c3c(cccc13)N=N2,scaled lipid accumulation score,[1],inactive: ≤ -0.006
same,scaled lipid accumulation score,library stock concentration: 22.7 mM,inactive: ≤ -0.006
COC(=O)[C@@H]1[C@H]2C[C@H]3c4[nH]c5ccccc5c4CCN3C[C@@H]2CC[C@@H]1O [Yohimbine HCl],scaled lipid accumulation score,[2],inactive: ≤ 0
same,scaled lipid accumulation score,[1],inactive: ≤ 0
COC(=O)[C@@H]1[C@H]2C[C@H]3c4[nH]c5ccccc5c4CCN3C[C@@H]2CC[C@@H]1O [Yohimbine hydrochloride],scaled lipid accumulation score,,inactive: ≤ 0
same,scaled lipid accumulation score,library stock concentration: 5.1 mM,inactive: ≤ 0
same,scaled lipid accumulation score,[1],inactive: 0.016 and inactive: 0.145 and inactive: 0.236
O=C1CCc2ccc(OCCCCN3CCN(c4cccc(Cl)c4Cl)CC3)cc2N1,scaled lipid accumulation score,[1],active: 0.964
C=C(C)[C@@H]1CC=C(C(=O)O)CC1 [(-)-Perillic acid],scaled lipid accumulation score,[1],inactive: ≤ 0
C=C(C)[C@@H]1CC=C(C(=O)O)CC1 [Perillic acid (-)],scaled lipid accumulation score,[1],inactive: ≤ 0
C[C@@H]1O[C@@H](O[C@H]2[C@H](Oc3cc(O)c(C(=O)CCc4ccc(O)cc4)c(O)c3)O[C@H](CO)[C@@H](O)[C@@H]2O)[C@H](O)[C@H](O)[C@H]1O [Naringin Dihydrochalcone],scaled lipid accumulation score,[2],inactive: ≤ 0
same,scaled lipid accumulation score,[1],inactive: 0.078
CCCCNC(=O)NS(=O)(=O)c1ccc(C)cc1 [Tolbutamide],scaled lipid accumulation score,,inactive: ≤ 0
same,scaled lipid accumulation score,[2],inactive: ≤ 0
same,scaled lipid accumulation score,[1],inactive: ≤ 0
same,scaled lipid accumulation score,library stock concentration: 18.5 mM,inactive: 0.073
CCCCNC(=O)NS(=O)(=O)c1ccc(C)cc1,scaled lipid accumulation score,[1],inactive: ≤ 0
"O=C(O)CCC/C=C\C[C@H]1C(=O)C=C[C@@H]1CC[C@@H](O)CCc1ccccc1 [17-phenyl trinor-13,14-dihydro Prostaglandin A2]",scaled lipid accumulation score,[3],inactive: ≤ 0
O=C(O)c1cc(-c2ccc(F)cc2F)ccc1O [Diflunisal],scaled lipid accumulation score,,inactive: ≤ 0
same,scaled lipid accumulation score,library stock concentration: 8 mM,inactive: ≤ 0 and inactive: ≤ -0.001
same,scaled lipid accumulation score,[1],inactive: ≤ 0
O=C(Nc1cccc(Nc2ncc(Br)c(NCCc3c[nH]cn3)n2)c1)N1CCCC1,scaled lipid accumulation score,[1],active: 0.978
CC(=O)[C@H]1CC[C@H]2[C@@H]3C[C@H](C)C4=CC(=O)CC[C@]4(C)[C@H]3[C@@H](O)C[C@]12C [Medrysone],scaled lipid accumulation score,,inactive: ≤ 0
same,scaled lipid accumulation score,library stock concentration: 5.8 mM,inactive: 0.001
same,scaled lipid accumulation score,[1],inactive: ≤ 0
CC(=O)[C@H]1CC[C@H]2[C@@H]3C[C@H](C)C4=CC(=O)CC[C@]4(C)[C@H]3[C@@H](O)C[C@]12C,scaled lipid accumulation score,[1],inactive: ≤ 0
O=C(Nc1c(Cl)cncc1Cl)c1ccc(OC(F)F)c(OCC2CC2)c1 [Roflumilast],scaled lipid accumulation score,[2],inactive: ≤ 0
same,scaled lipid accumulation score,[1],inactive: ≤ 0
CCOC(=O)OC(C)OC1=C(C(=O)Nc2ccccn2)N(C)S(=O)(=O)c2ccccc21 (stereo not drawn),scaled lipid accumulation score,[1],inactive: ≤ 0
CCOC(=O)OC(C)OC1=C(C(=O)Nc2ccccn2)N(C)S(=O)(=O)c2ccccc21 (stereo not drawn) [Ampiroxicam],scaled lipid accumulation score,[2],inactive: ≤ 0
same,scaled lipid accumulation score,library stock concentration: 4.5 mM,inactive: ≤ 0
same,scaled lipid accumulation score,[1],inactive: ≤ -0.001
"CCCS(=O)(=O)Nc1ccc(F)c(C(=O)c2c[nH]c3ncc(-c4ccc(Cl)cc4)cc23)c1F [Vemurafenib (PLX4032, RG7204)]",scaled lipid accumulation score,[2],inactive: ≤ 0
same,scaled lipid accumulation score,[1],inactive: ≤ 0
CCCCC/C=C\C/C=C\C/C=C\C/C=C\CCCC(=O)S[C@H](COCCCCCCCCCCCCCCCC)COP(=O)([O-])OCC[N+](C)(C)C [Arachidonoyl thio-PC],scaled lipid accumulation score,[3],inactive: ≤ 0
"CCCCCCCCCCC/C=C\C(C)(C)/C=C\CCCC(=O)O [7,7-Dimethyl-(5Z,8Z)-eicosadienoic acid]",scaled lipid accumulation score,[1],inactive: 0.226
CCCCCCCCCCCCC[N+](C)(C)Cc1ccccc1 [Benzalkonium chloride],scaled lipid accumulation score,[1],inactive: 0.182
Cn1c(-c2ccc3c(c2)OCO3)cc(=O)c2ccccc21 [Graveoline],scaled lipid accumulation score,,inactive: ≤ 0
CCCSc1ccc2nc(NC(=O)OC)[nH]c2c1 [Albendazole],scaled lipid accumulation score,[1],active: 0.892
CCOc1ccccc1OCCN[C@H](C)Cc1ccc(OC)c(S(N)(=O)=O)c1 [Tamsulosin HCl],scaled lipid accumulation score,[4],inactive: ≤ 0
CCn1cc(C(=O)O)c(=O)c2cnc(N3CCCC3)nc21 [Piromidic acid],scaled lipid accumulation score,,inactive: ≤ 0
same,scaled lipid accumulation score,[1],inactive: ≤ 0
O=S(=O)(O)CCS [Mesna],scaled lipid accumulation score,[2],inactive: ≤ 0
same,scaled lipid accumulation score,[1],inactive: ≤ 0
same,scaled lipid accumulation score,library stock concentration: 12.2 mM,inactive: ≤ 0
CC(C)Nc1ncccn1,scaled lipid accumulation score,[1],inactive: ≤ 0
CC(C)(C)NC[C@H](O)c1ccc(O)c(CO)c1,scaled lipid accumulation score,[1],inactive: ≤ 0
C#CCN1C(C)=C(C(=O)OC)C(c2cccc([N+](=O)[O-])c2)C(C(=O)OCC)=C1C (stereo not drawn),scaled lipid accumulation score,[1],inactive: 0.007
CCCCCCCCCCCCCCCCOC[C@H](CO)SC(C)=O [2-thio-Acetyl MAGE],scaled lipid accumulation score,[3],inactive: ≤ 0
CC(=O)OCC(=O)[C@@]12N=C(C)O[C@@H]1C[C@H]1[C@@H]3CCC4=CC(=O)C=C[C@]4(C)[C@H]3[C@@H](O)C[C@@]12C,scaled lipid accumulation score,[1],inactive: ≤ 0
CC(=O)OCC(=O)[C@@]12N=C(C)O[C@@H]1C[C@H]1[C@@H]3CCC4=CC(=O)C=C[C@]4(C)[C@H]3[C@@H](O)C[C@@]12C [Deflazacort],scaled lipid accumulation score,[2],inactive: ≤ 0
same,scaled lipid accumulation score,[1],inactive: 0.054
O=C(O)Cc1sc(-c2ccccc2)nc1-c1ccc(Cl)cc1 [Fentiazac],scaled lipid accumulation score,library stock concentration: 6.1 mM,inactive: 0.006
Cl.Cl.Clc1ccccc1CNC[C@H]1CC[C@H](CNCc2ccccc2Cl)CC1,scaled lipid accumulation score,[1],active: 1.48
Cn1nccc1Nc1nccc(-c2ccn([C@H](CO)c3ccc(Cl)c(F)c3)c(=O)c2)n1,scaled lipid accumulation score,library stock concentration: 80 uM,inactive: ≤ 0
same,scaled lipid accumulation score,library stock concentration: 400 uM,inactive: ≤ 0
same,scaled lipid accumulation score,library stock concentration: 2 mM,inactive: ≤ 0
same,scaled lipid accumulation score,[1],inactive: ≤ 0
N=C(N)NCCC[C@H](N)C(=O)O [L-Arginine],scaled lipid accumulation score,[1],inactive: 0.012
CNCCC(Oc1ccc(C(F)(F)F)cc1)c1ccccc1 (stereo not drawn) [Fluoxetine hydrochloride],scaled lipid accumulation score,[1],inactive: 0.09
CNCCC(Oc1ccc(C(F)(F)F)cc1)c1ccccc1 (stereo not drawn) [Fluoxetine],scaled lipid accumulation score,[1],inactive: 0.637
Cc1nc2n(c(=O)c1CCN1CCC(c3noc4cc(F)ccc34)CC1)CCCC2,scaled lipid accumulation score,[1],inactive: ≤ 0
Cc1nc2n(c(=O)c1CCN1CCC(c3noc4cc(F)ccc34)CC1)CCCC2 [Risperidone],scaled lipid accumulation score,,inactive: ≤ 0
same,scaled lipid accumulation score,[2],inactive: ≤ 0
same,scaled lipid accumulation score,[4],inactive: 0.026
same,scaled lipid accumulation score,[1],inactive: 0.213
CC(=O)Nc1ccc(CC(=O)O)cc1,scaled lipid accumulation score,[1],inactive: ≤ 0
C[C@@H](CN1CC(=O)NC(=O)C1)N1CC(=O)NC(=O)C1 [Dexrazoxane hydrochloride],scaled lipid accumulation score,[1],inactive: 0.02
"C[C@@H](CN1CC(=O)NC(=O)C1)N1CC(=O)NC(=O)C1 [Dexrazoxane HCl (ICRF-187, ADR-529)]",scaled lipid accumulation score,[2],inactive: ≤ 0
same,scaled lipid accumulation score,[1],inactive: ≤ 0
CN1CCCC(n2nc(Cc3ccc(Cl)cc3)c3ccccc3c2=O)CC1.Cl (stereo not drawn) [Azelastine HCl],scaled lipid accumulation score,[1],active: 1.09
CC(C)Oc1ccc2c(=O)c3cc(C(=O)O)ccc3oc2c1,scaled lipid accumulation score,[3],inactive: ≤ 0
same,scaled lipid accumulation score,[1],inactive: ≤ 0
CCC(=O)O[C@]1(C(=O)CCl)[C@@H](C)C[C@H]2[C@@H]3C[C@H](F)C4=CC(=O)C=C[C@]4(C)[C@@]3(F)[C@@H](O)C[C@@]21C [Halobetasol Propionate],scaled lipid accumulation score,[2],inactive: ≤ 0
same,scaled lipid accumulation score,[1],inactive: ≤ -0.001
CC(=O)N[C@H]1[C@H]([C@H](O)[C@H](O)CO)OC(C(=O)O)=C[C@@H]1NC(=N)N [Zanamivir],scaled lipid accumulation score,[2],inactive: ≤ 0
same,scaled lipid accumulation score,[1],inactive: ≤ 0
CNCCC(Oc1ccc(C(F)(F)F)cc1)c1ccccc1.Cl (stereo not drawn),scaled lipid accumulation score,[1],active: 0.914
CCN1CC(CCN2CCOCC2)C(c2ccccc2)(c2ccccc2)C1=O (stereo not drawn) [Doxapram HCl],scaled lipid accumulation score,[2],inactive: ≤ 0
same,scaled lipid accumulation score,[1],inactive: ≤ -0.001
CCN1CC(CCN2CCOCC2)C(c2ccccc2)(c2ccccc2)C1=O (stereo not drawn),scaled lipid accumulation score,library stock concentration: 10.4 mM,inactive: ≤ 0
CCCCCCCCCCCCCCCCCCOC[C@@H](COP(=O)([O-])OCC[N+](C)(C)C)OC [1-Octadecyl-2-methylglycero-3 PC],scaled lipid accumulation score,[3],inactive: ≤ -0.021
Cc1c(C(=O)NN2CCOCC2)nn(-c2ccc(Cl)cc2Cl)c1-c1ccc(I)cc1,scaled lipid accumulation score,[1],inactive: 0.185
C[C@]12CC[C@@H]3c4cc(O)c(O)cc4CC[C@H]3[C@@H]1CC[C@@H]2O [2-Hydroxyestradiol],scaled lipid accumulation score,[3],inactive: ≤ 0
N[C@@H](C(=O)N[C@@H]1C(=O)N2C(C(=O)O)=C(CSc3cn[nH]n3)CS[C@H]12)c1ccc(O)cc1,scaled lipid accumulation score,[1],inactive: ≤ 0
COc1ccc(C(=O)NCc2ccc(OCCN(C)C)cc2)cc1OC,scaled lipid accumulation score,[1],inactive: 0.061 and inactive: 0.313
N[C@@H](C(=O)N[C@@H]1C(=O)N2C(C(=O)O)=C(Cl)CS[C@H]12)c1ccccc1 [Cefaclor],scaled lipid accumulation score,,inactive: ≤ 0
same,scaled lipid accumulation score,library stock concentration: 5.4 mM,inactive: ≤ 0
same,scaled lipid accumulation score,[1],inactive: ≤ 0
N[C@@H](C(=O)N[C@@H]1C(=O)N2C(C(=O)O)=C(Cl)CS[C@H]12)c1ccccc1,scaled lipid accumulation score,[1],inactive: ≤ 0
O=C(O)CCC/C=C\C[C@@H]1CO[C@H](C(F)(F)F)O[C@@H]1c1ccccc1O,scaled lipid accumulation score,[1],inactive: ≤ 0
CC(Oc1ccccc1)C(=O)N[C@@H]1C(=O)N2[C@@H]1SC(C)(C)[C@@H]2C(=O)O (stereo partly drawn) [Phenethicillin potassium],scaled lipid accumulation score,library stock concentration: 5 mM,inactive: ≤ 0
CC(Oc1ccccc1)C(=O)N[C@@H]1C(=O)N2[C@@H]1SC(C)(C)[C@@H]2C(=O)O (stereo partly drawn) [Phenethicillin potassium salt],scaled lipid accumulation score,,inactive: 0.016
